The source of these data is article PMC4336329 (PLoS ONE, 2015).

The campaign covered roughly 310,000 compounds. About 14,000 (4.5%) showed an effect of 50% or more. Effects have a minus sign here. The list shows a part of the results.
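Also: peak tail current of the secondary pulse compared with the same well before compound.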

human ether-à-go-go-related gene (hERG) potassium channel, sequence (Q12809 whole entry, looked up): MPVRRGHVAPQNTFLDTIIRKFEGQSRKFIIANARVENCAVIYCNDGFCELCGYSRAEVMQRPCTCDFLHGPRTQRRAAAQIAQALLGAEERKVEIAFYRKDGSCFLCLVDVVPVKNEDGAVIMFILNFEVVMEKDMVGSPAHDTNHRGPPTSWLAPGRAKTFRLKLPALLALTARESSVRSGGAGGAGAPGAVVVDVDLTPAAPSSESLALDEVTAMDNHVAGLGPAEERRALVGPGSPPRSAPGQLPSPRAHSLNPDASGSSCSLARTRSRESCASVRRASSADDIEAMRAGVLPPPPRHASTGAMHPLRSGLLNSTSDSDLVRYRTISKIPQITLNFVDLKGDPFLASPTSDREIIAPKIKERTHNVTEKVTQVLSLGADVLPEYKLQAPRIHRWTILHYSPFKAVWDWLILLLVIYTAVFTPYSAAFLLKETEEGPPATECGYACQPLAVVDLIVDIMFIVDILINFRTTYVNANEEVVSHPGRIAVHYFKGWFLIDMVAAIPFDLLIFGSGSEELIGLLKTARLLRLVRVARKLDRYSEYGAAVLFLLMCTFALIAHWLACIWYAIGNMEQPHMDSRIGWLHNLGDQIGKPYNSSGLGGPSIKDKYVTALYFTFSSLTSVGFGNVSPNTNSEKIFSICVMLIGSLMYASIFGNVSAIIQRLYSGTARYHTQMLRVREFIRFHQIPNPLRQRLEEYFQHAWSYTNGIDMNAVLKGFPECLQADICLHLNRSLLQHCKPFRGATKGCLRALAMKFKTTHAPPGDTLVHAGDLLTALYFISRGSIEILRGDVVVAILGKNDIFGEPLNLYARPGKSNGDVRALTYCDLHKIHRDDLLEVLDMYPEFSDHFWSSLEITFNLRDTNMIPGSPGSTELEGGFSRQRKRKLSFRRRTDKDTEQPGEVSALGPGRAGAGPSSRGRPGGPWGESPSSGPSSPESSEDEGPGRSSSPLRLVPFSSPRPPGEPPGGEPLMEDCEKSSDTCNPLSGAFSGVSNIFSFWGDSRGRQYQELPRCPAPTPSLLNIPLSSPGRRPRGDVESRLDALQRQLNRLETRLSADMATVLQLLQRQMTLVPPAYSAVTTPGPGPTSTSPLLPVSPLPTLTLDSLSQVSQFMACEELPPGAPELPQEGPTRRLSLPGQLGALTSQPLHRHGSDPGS

This test addresses human ether-à-go-go-related gene (hERG) potassium channel (human, UniProt Q12809). The test is described as follows: primary screen, population patch clamp on CHO cells stably expressing hERG.
Turning to `Cc1nc(NC(=O)CCc2ccccc2)sc1C`, the “hERG current change (%, negative = inhibition) at 10uM” value is recorded as 8.6%.

Regarding `CN1CCN(C(=O)c2cc(Cl)cc(Cl)c2NC(=O)c2ccco2)CC1`, the “hERG current change (%, negative = inhibition) at 10uM” value worked out at 6.19%.

For `O=C(CSc1nc(-c2ccccc2)cc(C(F)(F)F)n1)c1cccc([N+](=O)[O-])c1`, the “hERG current change (%, negative = inhibition) at 10uM” value was found to be 7.73%.

`COc1ccc(OC)c(NC2=NCCS2)c1`: the “hERG current change (%, negative = inhibition) at 10uM” value was 11.3%.

As to `CC(SCC(=O)Nc1ccccc1)c1nc2ccccc2c(=O)[nH]1` (stereo not shown), the “hERG current change (%, negative = inhibition) at 10uM” value amounted to 5.65%.

On to `Cc1ccc(-n2c(SCC(N)=O)nc3c([nH]c4ccccc43)c2=O)cc1`, for which the “hERG current change (%, negative = inhibition) at 10uM” value worked out at 12.5%.

Consider `Cc1cc(-c2ccc(C)c(S(=O)(=O)NCc3ccc(Br)cc3)c2)on1`, for which the “hERG current change (%, negative = inhibition) at 10uM” value was -31%.

For `CCOC(=O)C1Cc2c([nH]c3ccccc23)CN1.Cl` (stereo not shown), the “hERG current change (%, negative = inhibition) at 10uM” value is -9.94%.

As for `CC1=NN(Cc2ccccc2)C(=O)/C1=C\c1ccc(N(C)C)cc1`, the “hERG current change (%, negative = inhibition) at 10uM” value stood at 5.39%.

Turning to `COCCNC(=O)/C(C#N)=C/c1cc(C)n(-c2ccc(C)cc2)c1C`, the “hERG current change (%, negative = inhibition) at 10uM” value is listed as -4.18%.

As for `Cc1cccc(C)c1NC(=S)N1CCCN(C)CC1`, the “hERG current change (%, negative = inhibition) at 10uM” value amounted to 15.2%.

Regarding `CCOC(=O)C1(Cc2ccccc2C)CCCN(S(=O)(=O)CC)C1` (stereo not shown), the “hERG current change (%, negative = inhibition) at 10uM” value is listed as 13.9%.

For `CCN(CC(=O)NC(C)C)Cc1nc2c(Br)cc(Br)cc2c(=O)[nH]1`, the “hERG current change (%, negative = inhibition) at 10uM” value worked out at 7.2%.

Turning to `O=C(NCc1cccs1)C1CCN(S(=O)(=O)c2ccccc2F)CC1`, the “hERG current change (%, negative = inhibition) at 10uM” value is listed as 10.4%.

Take `Cc1cc(N2C(=O)C3CCCN3C2c2ccc(Cl)c(Cl)c2)no1` (stereo not shown): the “hERG current change (%, negative = inhibition) at 10uM” value was -16.6%.

With `COc1ccc(C)c2sc(NC(=O)C3CC3)nc12`, the “hERG current change (%, negative = inhibition) at 10uM” value is -8.73%.

Turning to `CCOC(=O)c1c(NC(=O)CN2CCN(C(=O)c3ccco3)CC2)sc(C)c1C`, the “hERG current change (%, negative = inhibition) at 10uM” value is -8.41%.

Consider `Cc1nc2ccc(NS(=O)(=O)c3ccc(F)c(F)c3)cc2s1`, for which the “hERG current change (%, negative = inhibition) at 10uM” value is -10.7%.

Take `Cc1cc(NC(=O)c2cccs2)ncc1NC(=O)C(C)C`: the “hERG current change (%, negative = inhibition) at 10uM” value was 8.67%.

Consider `CC(C)(C)C1CCC(=NNC(=O)C(=O)NCc2ccco2)CC1` (stereo not shown), for which the “hERG current change (%, negative = inhibition) at 10uM” value is recorded as 5.45%.

As for `O=C(COc1ccc(Cl)cc1[N+](=O)[O-])NC1CCCCC1`, the “hERG current change (%, negative = inhibition) at 10uM” value was determined as 0.964%.

Consider `COc1cccc(NS(=O)(=O)c2ccc(-c3coc(C)n3)cc2)c1`, for which the “hERG current change (%, negative = inhibition) at 10uM” value stood at 17.3%.

Turning to `COc1cc(C2C(C#N)=C(N)N(c3cccnc3)C3=C2C(=O)CCC3)ccc1O` (stereo not shown), the “hERG current change (%, negative = inhibition) at 10uM” value is on record as -12%.

As to `O=C(COc1ccc(S(=O)(=O)N2CCOCC2)cc1)NCc1ccccn1`, the “hERG current change (%, negative = inhibition) at 10uM” value turned out to be 14.1%.

Regarding `CCOC(=O)c1cnc2c(c(C3CC3)nn2C)c1N1CCOCC1`, the “hERG current change (%, negative = inhibition) at 10uM” value was -3.26%.

As to `CNc1nnc(CSc2nc3ccccc3s2)s1`, the “hERG current change (%, negative = inhibition) at 10uM” value is -19%.

As to `CCCCn1c(N)c(N(CC(C)C)C(=O)c2oc3c(Cl)cccc3c2C)c(=O)[nH]c1=O`, the “hERG current change (%, negative = inhibition) at 10uM” value was -15.6%.

Take `CSCC[C@@H](Nc1nc(-c2ccccc2)nc2c1oc1ccccc12)C(=O)O.Cl`: the “hERG current change (%, negative = inhibition) at 10uM” value is listed as -3.98%.

With `Cc1ccc(N(C(=O)CNC(=O)c2ccco2)C(C(=O)NC2CCCC2)c2ccncc2)cc1` (stereo not shown), the “hERG current change (%, negative = inhibition) at 10uM” value turned out to be 15.1%.

Consider `N#Cc1cc(C(=O)c2cc(Cl)ccc2O)cn(CC2CCCO2)c1=O` (stereo not shown), for which the “hERG current change (%, negative = inhibition) at 10uM” value was -10.1%.

For the compound `O=C(O)C(=O)O.OC(CNc1ccccc1)Cn1ccc2ccccc21` (stereo not shown), the “hERG current change (%, negative = inhibition) at 10uM” value was found to be 8.33%.

As to `O=C(CNCc1ccc(Cl)cc1)Nc1ccc(C(=O)N2CCCCC2)cc1.O=C(O)C(=O)O`, the “hERG current change (%, negative = inhibition) at 10uM” value is reported as -16.2%.

With `COC(=O)C(/C=N/OCc1ccc([N+](=O)[O-])cc1)NC(=O)c1ccccc1` (stereo not shown), the “hERG current change (%, negative = inhibition) at 10uM” value is -27.1%.

Take `O=C(CSc1nc2nc(-c3cccs3)cc(C(F)(F)F)c2c(=O)[nH]1)Nc1c(F)c(F)c(F)c(F)c1F`: the “hERG current change (%, negative = inhibition) at 10uM” value was determined as 12.1%.

Regarding `CC(NC(=O)c1ccco1)C(=O)Nc1nc(-c2ccccn2)cs1` (stereo not shown), the “hERG current change (%, negative = inhibition) at 10uM” value is listed as -7.69%.

On to `Cc1ccc(S(=O)(=O)CC(C)N2CCOCC2)c(S(=O)(=O)CC(C)N2CCOCC2)c1` (stereo not shown), for which the “hERG current change (%, negative = inhibition) at 10uM” value was -8.9%.

With `O=C(NCC1CCCO1)c1ccc2c(=O)n(Cc3cccc(Br)c3)c(=S)[nH]c2c1` (stereo not shown), the “hERG current change (%, negative = inhibition) at 10uM” value was determined as 4.33%.

As to `CC(C)C(C(=O)Nc1sc2c(c1C#N)CCCCC2)N1C(=O)c2ccccc2C1=O` (stereo not shown), the “hERG current change (%, negative = inhibition) at 10uM” value is given as 4.7%.

For `CCCCn1nc(C(=O)N(C)CC(=O)Nc2cccc(F)c2)c2ccccc2c1=O`, the “hERG current change (%, negative = inhibition) at 10uM” value is -16.3%.

On to `COCCN1Cc2cccc(C(=O)Nc3cccc(OC)c3)c2C1=O`, for which the “hERG current change (%, negative = inhibition) at 10uM” value amounted to 8.16%.

As for `COc1ccc(/C=N/OCC(=O)NC(c2ccccc2)c2ccccc2)cc1OC`, the “hERG current change (%, negative = inhibition) at 10uM” value worked out at 2.65%.

`Cc1cc(C)cc(NC(=O)CNC(c2ccccc2)c2ccccc2)c1`: the “hERG current change (%, negative = inhibition) at 10uM” value turned out to be 11.9%.

Take `CSc1cccc(NC(=S)NCCCO)c1`: the “hERG current change (%, negative = inhibition) at 10uM” value is -4.03%.
